± gives the standard deviation of the averaged measurements. The list shows a part of the results.

This assay deals with PfAP2-LT AP2 domain (GST-tagged). The experiment in a line: gcPBM binding intensity (ln(normalized median fluorescence intensity)); higher = stronger DNA binding. Put shortly: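 GST-tagged P. falciparum DNA-binding domains, expressed in E. coli (about 25 μg on average), were applied for 1 h to an Agilent 4 × 180k array of primer-extended double-stranded 36-bp intergenic genomic probes plus negative controls. The binding buffer was 1× PBS with 1% milk, 0.2 mg/ml BSA, 0.5% salmon testes DNA and 0.03% Triton X-100. Bound protein was detected with Alexa488 anti-GST antibody and scanned at 488 nm. Binding intensity is the highest Masliner-normalised natural-log median intensity across replicate spots of either probe orientation.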
In the case of “TACTATAAGATATATACACACAAGAAATACAAAACG [CACACA_site6764]”, the “gcPBM binding intensity (ln)” value came to 9.38 ± 0.43.

Regarding “TATTTTTCCATAAAAATTTATATAGAAACAAATAAT [GTGCAC_negctrl_site103]”, the “gcPBM binding intensity (ln)” value is 8.18 ± 0.28. The same measure for “ATTATTTTAATTTTAATTTTTTTTTTTTTTTGTTTT [CACACA_negctrl_site1063]”: 8.38 ± 0.57; for “CCCTTTTATTAAAATTCACACACATAAATTTTTATA [CACACA_site8611]”: 8.94 ± 0.46. Take “ATATATGTATATTTTTGTACGCATAAATATATTTTT [XGTACX_site827]”: the “gcPBM binding intensity (ln)” value is 8.7 ± 0.38. The same measure for “TTTTTATACAATTAGACACACACAAAAAGTATATAT [CACACA_site8272]”: 9.08 ± 0.41; for “TGCTTAATTTACGTGGGTACATACACCTCATATATT [XGTACX_site3093]”: 8.96 ± 0.46; for “TTAATACATATATATATATTATATATATATATATAT [TGCATGCA_negctrl_site177]”: 9.05 ± 0.25.

Regarding “TATCGTTATATAATATGTACATATAAAATTTAAATT [XGTACX_site1887]”, the “gcPBM binding intensity (ln)” value was 8.57 ± 0.39. On to “AAAATGTATATATAAACATGCACACGTGGTTGTATA [TGCATGCA_site847]”, for which the “gcPBM binding intensity (ln)” value amounted to 9.14 ± 0.27. Turning to “TATATATTATGACCACCACACACCTATACGCATAAC [CACACA_site2447]”, the “gcPBM binding intensity (ln)” value is 9.44 ± 0.085. In the case of “TCTTAAATTTCTTTATGTACATAATTAATATATTTA [XGTACX_site4456]”, the “gcPBM binding intensity (ln)” value amounted to 8.74 ± 0.49. The same measure for “ATATATATATATATATGTACATATCACTTTAAATAT [XGTACX_site3859]”: 9.74 ± 0.042; for “TTTTCTTAAAAAATCAAACACACATATATATATACA [CACACA_site2297]”: 8.62 ± 0.37. The same measure for “ATGATAGTATGTATGAGTACGAAAAAAAAAAATTAA [XGTACX_site32]”: 8.73 ± 0.54; for “AAATGCAAATGATGATGTACATACAAAAATTAAATT [XGTACX_site5323]”: 9.13 ± 0.47. “TGTGGGAATAACCACACACACACACCCATATATATA [CACACA_site5876]”: the “gcPBM binding intensity (ln)” value amounted to 9.78 ± 0.28.

As for “ATATATATATATATTGTACACACATTTATGCATATA [CACACA_site9055]”, the “gcPBM binding intensity (ln)” value worked out at 9.68 ± 0.2.

On to “CTCAAACAATATTATATAATAAAGTACATATATATT [CACACA_negctrl_site446]”, for which the “gcPBM binding intensity (ln)” value was found to be 8.79 ± 0.35. The same measure for “TATATTTTTATATTTTGTACATATAGTAAATATAAA [XGTACX_site4768]”: 8.24 ± 0.38; for “AAAAATAAATATACATGTACTTAAAATAATCGAATA [XGTACX_site8432]”: 8.82 ± 0.43; for “ACGTATCAAAAAATTTGTACATATATATATATATAT [XGTACX_site1024]”: 9.64 ± 0.13. As for “GAACAGAAAAAGAATAGTACATATATATATATATAT [XGTACX_site3700]”, the figure is 9.59 ± 0.21; as for “TATAATATGAACAGTACACACAAAATAAATTCGTAT [CACACA_site3586]”, 9.19 ± 0.38; as for “ATTCAAAATAATAGAATTGTTAAAGTTGTAAATTGA [CACACA_negctrl_site727]”, 8.4 ± 0.49. As for “GTTTATGTTAAACCATGTACTTAATATTTTATTCTT [XGTACX_site3761]”, the figure is 8.79 ± 0.45; as for “AAAAAAAAAGTATTATGTACATAAAAATAAAAAAAT [XGTACX_site4166]”, 8.97 ± 0.54; as for “TATTAAAATATGTCAGTTCTTAAAAAGTTGATGAGT [GTGCAC_negctrl_site77]”, 8.44 ± 0.38. Consider “TATGATTCATAATAGTGTACGTAAAAATTGACTAGA [XGTACX_site5376]”, for which the “gcPBM binding intensity (ln)” value is 8.8 ± 0.44. The same measure for “ATTGTAGAATTTAATAGTACTCACGAATAAAATAAA [XGTACX_site6280]”: 8.52 ± 0.53. As to “AAAAATATATAAAGAAAAAGAATATAATATAAAATA [GTGCAC_negctrl_site208]”, the “gcPBM binding intensity (ln)” value is 8.63 ± 0.52. Regarding “GCATTTTAATAATTATGTACATATATTATTCCTGGT [XGTACX_site3664]”, the “gcPBM binding intensity (ln)” value is 8.96 ± 0.5. On to “TTCCATCAAAAAATGGGTACACATTATAGAAATATT [XGTACX_site8482]”, for which the “gcPBM binding intensity (ln)” value stood at 8.6 ± 0.4. With “ACGCATGTAATTTATACACACATTCTTTTATATTTT [CACACA_site3708]”, the “gcPBM binding intensity (ln)” value turned out to be 8.99 ± 0.39. Turning to “TATACATATATATATACACACATATATATATATACA [CACACA_site402]”, the “gcPBM binding intensity (ln)” value is 9.15 ± 0.24. The same measure for “AAATTATTATCGTTAATATGTATATATGTGCCAAGT [TGCATGCA_negctrl_site557]”: 8.72 ± 0.4; for “AAAACATACAGATATACACACATATATATATATATA [CACACA_site5091]”: 10.1 ± 0.15; for “ATATAGATCTACACTGCACACATTTTTAACACTGCT [CACACA_site1882]”: 9.39 ± 0.27.

Consider “ATATTTAAACGATGGTGTACATATATTACAAGTTGT [XGTACX_site1743]”, for which the “gcPBM binding intensity (ln)” value worked out at 8.98 ± 0.44. On to “TAAAATGAAGGAATATGTACATAAATAAACATATAT [XGTACX_site6266]”, for which the “gcPBM binding intensity (ln)” value was found to be 8.98 ± 0.45. “AATATACGAAATTGTGCACACATATATTTATGTATG [CACACA_site1510]”: the “gcPBM binding intensity (ln)” value amounted to 9.31 ± 0.39.

Consider “CGATATAAAGATATTAGTACATATGCATGCTTGTCT [XGTACX_site8629]”, for which the “gcPBM binding intensity (ln)” value came out at 8.93 ± 0.54.

Consider “CATATATGATATATTAGTACATATATATATATATAT [XGTACX_site1574]”, for which the “gcPBM binding intensity (ln)” value turned out to be 9.38 ± 0.22. With “AATCTAATGTAATGCATACACACAACTATCCATCAA [CACACA_site535]”, the “gcPBM binding intensity (ln)” value is 9.15 ± 0.26.

The record behind these values is the supplement of paper PMC11417369.
